# In all, about 110,000 compounds were measured (“z-score”: median about -0.1, highest 2% from about 2 on). The list shows a part of the results. The source made the active and inactive calls.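 Rule for the calls: active = z-score in the third read window above 3 or below -3; inactive = the rest.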
# Biological target: Metabotropic glutamate receptor 8 (Rattus norvegicus) (UniProt P70579)
# Test: mGluR8 Gi/Go-coupled signaling modulation – cell-based, rat, thallium flux, HTS, primary screen (AID 488969)
# Details: HEK293 rat mGluR8, GIRK (G protein-gated inwardly rectifying potassium channel) thallium flux, FluoZin2; at 10 µM; stronger effect = higher value; submaximal glutamate (EC20) added with thallium
# UniProt P70579, sequence (P70579 whole entry, looked up): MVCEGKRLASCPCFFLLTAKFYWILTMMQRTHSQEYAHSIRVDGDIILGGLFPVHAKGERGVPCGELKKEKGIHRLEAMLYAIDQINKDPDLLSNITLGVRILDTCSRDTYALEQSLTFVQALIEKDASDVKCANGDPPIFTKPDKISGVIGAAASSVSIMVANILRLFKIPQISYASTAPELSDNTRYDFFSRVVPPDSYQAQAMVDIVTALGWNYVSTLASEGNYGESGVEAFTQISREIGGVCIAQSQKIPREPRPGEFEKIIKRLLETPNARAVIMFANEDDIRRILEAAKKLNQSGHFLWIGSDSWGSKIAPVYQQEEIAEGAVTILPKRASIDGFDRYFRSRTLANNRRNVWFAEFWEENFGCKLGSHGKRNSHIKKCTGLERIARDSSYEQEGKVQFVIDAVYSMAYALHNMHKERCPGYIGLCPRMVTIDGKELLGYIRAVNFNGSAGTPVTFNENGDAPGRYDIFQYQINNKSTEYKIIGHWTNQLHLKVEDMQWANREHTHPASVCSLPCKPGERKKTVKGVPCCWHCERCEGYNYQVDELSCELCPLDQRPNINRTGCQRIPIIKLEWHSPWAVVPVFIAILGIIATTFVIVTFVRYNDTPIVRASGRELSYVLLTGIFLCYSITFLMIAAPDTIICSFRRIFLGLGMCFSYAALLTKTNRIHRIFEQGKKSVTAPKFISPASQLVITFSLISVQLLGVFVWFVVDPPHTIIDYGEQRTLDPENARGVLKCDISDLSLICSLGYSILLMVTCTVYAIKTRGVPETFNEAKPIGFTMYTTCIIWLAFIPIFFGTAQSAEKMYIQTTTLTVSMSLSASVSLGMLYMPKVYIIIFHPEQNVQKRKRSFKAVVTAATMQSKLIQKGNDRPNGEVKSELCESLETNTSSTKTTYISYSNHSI
row,SMILES,z-score
1,Cc1ccc(NC(=O)CN2C(=O)NC(C)(c3ccc(Cl)cc3)C2=O)cc1S(=O)(=O)N1CCOCC1 (stereo not given),-0.0719
2,CCn1c2ccccc2c2cc(NC(=O)CSc3nnc(-c4cccc(F)c4)o3)ccc21,0.298
3,COC(=O)c1c(NC(=O)CN2CCN(c3ccccc3Cl)CC2)sc(C)c1C,-0.0842
4,NC(=O)CSc1nnc(-c2ccc(S(=O)(=O)N3CCOCC3)cc2)n1Cc1ccccc1,-0.888
5,Fc1ccccc1N1CCN(C(c2cccs2)c2nnnn2CCc2ccccc2)CC1 (stereo not given),0.131
6,CN(C)c1ccc(-c2n(C)c3ccccc3[n+]2C)cc1,0.0484
7,Cc1ccc(NC(=O)CSc2nnc(CNC(=O)C34CC5CC(CC(C5)C3)C4)n2-c2ccc(F)cc2)cc1,-0.0179
8,C=C(C)Cn1c(CCCNC(=O)C(C)(C)C)nc2ccccc21,0.285
9,O=C(Nc1ccc(OC(F)(F)F)cc1)c1n[nH]c(Cn2cncn2)n1,-0.0524
10,CC(C)(C)NC(=O)NC(=O)COC(=O)c1cc(=O)[nH]c2ccccc12,-0.373
11,Cc1nnc(-n2ncc(C#N)c2N)c2nn(-c3ccccc3F)c(C)c12,0.226
12,CCC(=O)c1ccc(OCC(O)CN2C(=O)NC(C)(C)C2=O)cc1 (stereo not given),0.166
13,Cc1cccc(OCC(=O)Nc2ccccc2C(=O)N2CCOCC2)c1,-0.0499
14,O=[N+]([O-])c1ccc(Sc2n[nH]c(-c3ccc(Cl)cc3Cl)n2)nc1,0.621
15,CCOC(=O)c1cnc2c(C)c(C)ccc2c1Nc1ccc(S(=O)(=O)Nc2ncccn2)cc1,-0.177
16,CC(=O)N1CCc2cc(S(=O)(=O)CCC(=O)Nc3cccc(F)c3)ccc21,0.0808
17,O=C(COC(=O)c1ccc(Br)o1)NCc1ccco1,0.0551
18,O=C(COC(=O)COc1ccccc1[N+](=O)[O-])Nc1ccc(S(=O)(=O)N2CCCCC2)cc1,-0.317
19,CC(C)Oc1ccc(C(=O)NCc2ccco2)cc1,-0.396
20,Cc1nn(-c2ccccc2)c(C)c1/C=C/C(=O)OC(C)C(=O)Nc1ncc(Cl)cc1Cl (stereo not given),-0.134
21,CCC(C)c1ccc(NC(=O)COC(=O)C2=COCCO2)cc1 (stereo not given),0.095
22,C=CCNS(=O)(=O)c1cccc(C(C)=O)c1,-0.161

row,SMILES,z-score
1,Cc1cc(Nc2ccc(F)cc2Cl)n2nc(C)nc2n1,0.452
2,COc1ccc(C(C)NC(=O)c2cccc([N+](=O)[O-])c2)cc1OC (stereo not given),0.0831
3,NC(=O)c1ccsc1NC(=O)COC(=O)C1CCCN1C(=O)c1cccs1 (stereo not given),-0.196
4,CCC(C)C(=O)Nc1cc([N+](=O)[O-])ccc1Cl (stereo not given),-0.229
5,COc1ccc(NC(=O)c2cc3c(Cl)nc4ccccc4c3s2)c(OC)c1,-0.0917
6,O=C(NCc1ccco1)c1ccc(Cn2c(=O)c3ccccc3n(Cc3cccc(Cl)c3)c2=O)cc1,-0.159
7,CCCc1nc2c(nnn2Cc2ccccc2)c(=O)[nH]1,-0.0649
8,O=C(CSc1ncccn1)N1CCN(Cc2ccccc2)CC1,0.285
9,CCn1c(C)c(CCC(=O)O)c(=O)n2nc(-c3ccccc3OC)cc12,0.435
10,CC1CCN(c2nc3ccccc3nc2N2CCC(C)CC2)CC1,-0.169
11,Cc1ccccc1NC(=S)NNc1ncc(C(F)(F)F)cc1Cl,0.522
12,COc1ccccc1N1CCN(C(=O)CN(c2ccccc2OC)S(=O)(=O)c2ccccc2)CC1,-0.359
13,Cc1noc(C)c1S(=O)(=O)N1CCC(C(=O)N2CCC(C)CC2)CC1,-0.251
14,CCCCc1ccc(/C=C2\C(=O)c3ccccc3C(O)=C2C(=O)OCC)cc1,0.193
15,Cc1nnc(SCC(=O)c2cc(C)n(-c3ccc4c(c3)OCO4)c2C)s1,0.0461
16,CCN(CC(=O)Nc1ccccc1Br)Cc1nc2ccccc2c(=O)[nH]1,-0.227
17,COC(=O)CSc1snnc1-c1ccc(Cl)c(Cl)c1,0.058
18,Nc1nnc(SCC(=O)NN2C(=O)NC3(CCCCC3)C2=O)s1,-0.0682
19,CCOc1ccc2c(c1)c(N=NC(=N)N)c(O)n2C,-0.224
20,CC1CCN(S(=O)(=O)c2ccc(Cl)cc2)CC1,0.268
21,COc1ccc(C(=O)Nc2nnc(-c3ccco3)s2)cc1,-0.0428
22,Cc1ccc(-n2c(Cn3nc(C(F)(F)F)cc3C)n[nH]c2=S)cc1,0.00739

row,SMILES,z-score
1,O=C(NCc1ccco1)c1cc2sccc2n1Cc1ccc(F)cc1,-0.659
2,CNCCCOc1cccc(OC(C)C)c1,-0.272
3,O=C(COC(=O)/C=C/c1ccccc1Cl)NC(=O)Cc1ccccc1,-0.122
4,COc1ccc(CCNC(=O)c2nnn(-c3ccc4c(c3)OCCO4)c2N)cc1OC,-0.202
5,CCCCC(NC(=O)c1ccccc1)C(=O)OCC(=O)N1c2ccccc2Sc2ccccc21 (stereo not given),-0.405
6,CCc1ccccc1NC(=O)CN(C)C(=O)CSc1nn(-c2ccc(F)cc2)c(=S)s1,0.81
7,O=[N+]([O-])c1cccc(N/N=C/c2cccc3ccccc23)c1,0.768
8,COc1ccc(-c2nc(C#N)c(NCc3ccccc3Cl)o2)cc1,0.523
9,Cc1ccc(-c2nc(CSc3nc4ccccc4c(=O)n3C)cs2)cc1,-0.0673
10,Cc1ccc(/C=C2\Oc3cc(OC(=O)N4CCOCC4)ccc3C2=O)cc1,-0.103
11,CC(=O)N1N=C(c2ccc(C)o2)CC1c1ccc(F)cc1 (stereo not given),-0.332
12,CC(C)(C)N1C(=O)c2ccccc2NC(=O)N1Cc1ccccc1,0.185
13,CC(C)N(Cc1nnc(-c2ccccc2Cl)o1)C(=O)c1cccc(C#N)c1,0.0421
14,O=C(CS(=O)(=O)c1ccc2ccccc2c1)Nc1ccccc1Cl,-0.351
15,c1ccc(Cn2nnc3c(N4CCCCCC4)ncnc32)cc1,-2.1
16,c1cc(C2OCCN2CC2COC3(CCCC3)O2)ccn1 (stereo not given),0.32
17,Cc1sc2c(c1C)c(=O)n(-c1ccccc1)c1nnc(C)n21,-1.09
18,O=C(O)c1cc2c(ccc3ccccc32)oc1=O,-0.496
19,CC1=C(C)CS(=O)N(c2ccc(S(N)(=O)=O)cc2)C1 (stereo not given),-0.403
20,CCOC(=O)c1c(NC=O)sc2c1CCC2,-0.85
21,Cc1ccc(C2CCN(C(=O)Nc3ccccc3)C2)cc1 (stereo not given),-0.224
22,Cc1c(CCO)c(=O)n(C)n1C(=O)c1ccc(F)cc1,0.0927

row,SMILES,z-score
1,N#C/C(=C\c1cn(CCOc2ccccc2)c2ccccc12)C(=O)NCC1CCCO1 (stereo not given),-0.29
2,Cc1cccc(-c2nc(NCCCN3CCOCC3)c3ccccc3n2)c1,-0.137
3,COC(=O)c1cn(CCOc2ccccc2OC)c2ccccc12,-0.227
4,Cc1ncc(C[n+]2csc(CCOC(=O)CC3C4CC5CC(C4)CC3C5)c2C)c(N)n1 (stereo not given),0.433
5,COc1cccc2cc(C(=O)N3CCN(C45CC6CC(CC(C6)C4)C5)CC3)c(=O)oc12,0.00721
6,O=C(CCN1CCN(CC(=O)Nc2ccccc2F)CC1)Nc1ccccc1F,-0.938
7,C=CCn1c(SCC(=O)N2CC(=O)Nc3ccccc32)nc2scc(-c3ccccc3)c2c1=O,0.252
8,C=CCn1c(COc2ccccc2C)nnc1SCC(=O)O,0.662
9,Cc1cccc(-c2nc3cc(NC(=O)C4CCCO4)ccc3o2)c1 (stereo not given),-0.137
10,Fc1ccc(Sc2cc(Cl)c(-c3ccccc3)nn2)cc1,-1.58
11,O=C(COC(=O)c1ccc(NS(=O)(=O)c2ccc3c(c2)OCCO3)cc1)NCC1CCCO1 (stereo not given),0.0379
12,COC(=O)c1ccc(NC(=O)N2CCC(O)(c3cccnc3)CC2)cc1,0.813
13,CNC(=O)c1c(O)c2cccc3c2n(c1=O)CC3,0.613
14,CCOc1cc(N2CCOCC2)c(OCC)cc1NC(=O)COc1ncnc2ccc(Br)cc12,-0.176
15,Cc1nnc(SCc2cc(=O)[nH]c(N3CCN(Cc4ccccc4)CC3)n2)s1,-0.0743
16,CCOC(=O)c1cc(-c2ccc(N)cc2)sc1N,-1.02
17,CCCCCN1CC(O)=C(c2nc(-c3ccc(Cl)cc3)cs2)C1=N,0.807
18,CC1(C)C2CC=C(/C=N/n3cnnc3)C1C2 (stereo not given),2
19,Cc1ccc(S(=O)(=O)c2ccc(Oc3cccc(C)c3)cc2)cc1,-0.0386
20,O=C(CSc1nc2ccccc2o1)Nc1cc(C(F)(F)F)ccc1N1CCOCC1,0.0658
21,COC(=O)c1c(NC(NC(C)=O)C(Cl)(Cl)Cl)sc2c1CCCC2 (stereo not given),-0.201
22,COc1ccc(OC)c(C2Nc3nc4ccccc4n3C(C)=C2C(=O)Nc2ccc(C)cc2C)c1 (stereo not given),-0.172

row,SMILES,z-score
1,O=C(CCN1C(=O)COc2ccccc21)NCCCN1CCc2ccccc2C1,active: 7.6
2,Cc1ccc(OCCCC(=O)Nc2nccs2)cc1,1.5
3,CC(Sc1nnc(NC2CCCCC2)s1)C(=O)Nc1ccc2c(c1)C(=O)c1ccccc1C2=O (stereo not given),0.95
4,Cc1ccc2nc(N3CCN(Cc4nnnn4C4CCCC4)CC3)c(C#N)cc2c1,-0.105
5,CCCSc1nnc(CSc2nc3ccccc3s2)n1-c1ccccc1,0.0811
6,CCOC(=O)N1CCN(C(=O)Nc2ccc3nc(C)sc3c2)CC1,0.467
7,CCN(CC)CCC(=O)Nc1ccc2c(c1)N(C(=O)CN(CC)CC)c1ccccc1CC2,-0.214
8,COC(=O)Nc1nnc(CC(=O)Nc2ccccc2C)s1,0.415
9,COc1cc(C)c(NC(=S)Nc2cccc(Cl)c2C)cc1OC,-0.261
10,N/C(Cc1ccc([N+](=O)[O-])cc1)=N\OC(=O)c1ccc([N+](=O)[O-])cc1,-0.153
11,O=C(NN=C(Cc1ccccc1)Cc1ccccc1)c1ccc(F)cc1,active: 4.71
12,CC(C)Sc1nc(O)c(Cc2ccccc2)c(=O)[nH]1,-0.214
13,O=C(O)COc1ccc(-c2nccc(-c3cccs3)n2)cc1,0.641
14,COc1ccccc1N1CCN(c2ccc([N+](=O)[O-])cc2Cl)CC1,0.0156
15,O=c1cc(N2CCc3ccccc32)[nH]c(=O)n1Cc1ccc(F)cc1,-0.00953
16,CC1(C)Nc2ccccc2C(=O)N1NS(=O)(=O)c1ccccc1,0.16
17,O=c1c(-c2ccco2)[n+]([O-])c2ccccc2n1OCc1ccccc1F,-0.377
18,CCc1ccc(C(=O)CSc2nc3ccccc3c(=O)[nH]2)cc1,-0.108
19,O=C(NC1CCCCC1)C(c1cccs1)N(Cc1cccs1)C(=O)c1cccs1 (stereo not given),0.00854
20,CCN1C(=O)CSc2ccc(C(=O)NCc3ccc(OC)cc3)cc21,0.0166
21,CCCc1cc(Nc2c(C)n(C)n(-c3ccccc3)c2=O)n2c(nc3ccccc32)c1C#N,-1.44
22,COc1ccc(CCN(Cc2cccs2)S(=O)(=O)c2ccc(-n3cnnn3)c(OC)c2)cc1OC,0.00123

# Reference: PubChem BioAssay AID488969 (Vanderbilt High Throughput Screening Facility, 2010)
